Measurements taken from PubChem BioAssay AID652104 (National Center for Advancing Translational Sciences (NCATS), 2013).
Where “and” joins values, the source holds several entries; their conditions need not be identical. Equal values may be shown once. The whole screen tested about 410,000 compounds, of which about 7,200 (1.8%) were called active. This list was built around the results that the source calls inconclusive (neither active nor inactive); the mix of calls is not that of the screen. Calls follow the shape of the dose curve; as a rule, active = well fitted activation curve with a large enough effect; inconclusive = small, poorly fitted or top-dose-only effect, or another doubt; inactive = no such curve, though single readings can be large or run the other way. A potency beside an inconclusive call is a rough fit, not a confirmed value.

Test: qHTS of TDP-43 Inhibitors; also: nearly all actives have a fitted effect of over 50% in size; as to growth rescue (activation): % of control where 0% means no effect
Details: TDP-43 expressing yeast growth rescue, BacTiter-Glo, 24 h; growth rescue (activation): at 46.1 µM (top of the series) unless noted
In short: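 Galactose-induced TDP-43 yeast, OD600=0.02, compound pinned; 24 hr, 30 deg C; BacTiter-Glo luminescence for growth. Inhibitors of TDP-43 toxicity read as activators.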
Potency is read from the fitted curve at half-maximal effect; tags tell the direction and shape of the fitted curve.

Structure (SMILES)	Potency	growth rescue (activation)
Cc1cccc(S(=O)(=O)c2cn(Cc3ccccc3)c3cc(N4CCCC(C)C4)c(F)cc3c2=O)c1 (stereo unspecified)	inconclusive: 0.794 µM [activator, full curve]	
COc1cccc(C(O)c2nc(-c3ccc(Cl)cc3)cs2)c1 (stereo unspecified)	active: 12.6 µM	
Cc1cccc(OCCOC(=O)C2CCN(S(=O)(=O)c3cccs3)CC2)c1	inconclusive: 20 µM [activator, partial curve]	
CCOc1cccc(C(=O)Nc2cccc(C(=O)NC(C)(C)C)c2)c1	inconclusive: 35.5 µM [activator, partial curve, poor fit]	
CSc1nn(Cc2cccc(F)c2)c(N(C(C)=O)C(C)=O)c1S(=O)(=O)c1ccccc1	active: 35.5 µM	
CCCCN(CC)C(=O)c1cc2c(=O)[nH]c3ccc(C)cc3c2s1	inconclusive: 11.2 µM [activator, partial curve]	
CCCCSC1=C(C#N)C(c2ccccc2C)CC(=O)N1 (stereo unspecified)	inconclusive: 11.2 µM [activator, partial curve]	
Cn1c2ccccc2c2ncn(CCC3=CCCCC3)c(=O)c21	active: 12.6 µM	
O=C(O)c1ccc(NCCC2=CCCCC2)c([N+](=O)[O-])c1	active: 15.8 µM	
CCCCCCCCCn1cc(C(C)=O)c(=O)[nH]c1=O	inconclusive: 10 µM [activator, partial curve, poor fit]	
CCOc1ccc(N=Nc2ccc(O)c3ncccc23)cc1	inconclusive: 25.1 µM [activator, single point]	
CCc1ccc(-n2nc(C)c3c(C)cc(=O)n(CC(=O)Nc4ccc(OC)c(OC)c4)c32)cc1	inactive	
Cn1c(=O)c2c(nc(NC3CCCCC3)n2Cc2ccccc2)n(C)c1=O	inconclusive: 20 µM [activator, partial curve]	
CCOc1ccccc1CNC(=O)CCCN1C(=O)CCn2nc(-c3cccn3C)cc21	inactive	
CCC(=O)c1cc(F)c(N2CCN(C(=O)Cc3ccccc3)CC2)cc1C	inconclusive: 35.5 µM [activator, partial curve]	
COc1ccc([C@@H]2CC=C(C(=O)O)[C@H](c3ccc(Br)cc3)N2S(=O)(=O)c2ccccc2C)cc1	active: 35.5 µM	
O=C(COc1ccccc1-c1ccccc1)NCc1cccc(Cl)c1	inconclusive: 15.8 µM [activator, single point]	
COC(=O)c1sc(Nc2ccccc2)nc1C	active: 12.6 µM	
COc1ccc(C2CC(=O)c3sc(NC(C)=O)nc3C2)cc1 (stereo unspecified)	inconclusive: 17.8 µM [activator, partial curve]	
O=S(=O)(Nc1ccc2oc(-c3ccccc3)nc2c1)c1ccccc1	inconclusive: 25.1 µM [activator, single point]	
CCOc1ccccc1-n1c(=O)c2ccccc2c2ccccc2c1=O	inconclusive: 5.62 µM [activator, partial curve]	
COc1ccc(C2CC=C(C(C)=O)CN2S(=O)(=O)c2ccc(Cl)cc2)cc1 (stereo unspecified)	inconclusive: 7.94 µM [activator, partial curve]	
O=S(=O)(Nc1ccccc1Cl)c1ccc(NS(=O)(=O)c2cccs2)cc1	inactive	
O=C(CSCc1ccc(Cl)cc1)Nc1ccc2c(c1)OCCO2	active: 11.2 µM	

Structure (SMILES)	Potency	growth rescue (activation)
Cc1nc(-c2cccc(NC(=O)c3ccc(Br)o3)c2)cs1	active: 11.2 µM	
COc1ccccc1C(=O)O/N=C(\N)c1ccccc1Cl	active: 15.8 µM	
CCOc1ccc(CNC(=O)Cn2ncc3c(=O)oc4ccc(C)cc4c32)cc1	inactive	
Cc1ccc(C)c(CN2C(=O)c3ccccc3S(=O)(=O)c3ccc(C(=O)N4CCOCC4)cc32)c1	inactive	
CCCCCn1c(C)c2c(OCC)cccc(=O)c2c1C	inconclusive: 35.5 µM [activator, single point]	
Cc1ccc(Nc2nc(COC(=O)C3CC3)cs2)cc1	active: 12.6 µM	
Cc1ccc(S(=O)(=O)CCC(=O)OCC(=O)c2cc(C)ccc2C)cc1		inconclusive: 41.4% [activator]
COC(=O)CNC(c1ccccc1)c1cc(Br)ccc1NC(=O)CCN1CCOCC1 (stereo unspecified)	inconclusive: 1.41 µM [activator, partial curve]	
Cc1ccc(CNC(=O)CCC(=O)N2CC(C)Sc3ccccc32)cc1 (stereo unspecified)	inactive and inconclusive: 35.5 µM [activator, single point]	
NC(=O)c1[nH]cnc1N	inconclusive: 1.78 µM [activator, partial curve, poor fit]	
COC(=O)CN(c1ccc(C)c(Cl)c1)S(C)(=O)=O	inactive	
Fc1ccc(Nc2ncnc3sccc23)cc1	inconclusive: 14.1 µM [activator, single point]	
CCc1cc2c(-c3ccccc3)cc(=O)oc2cc1OC(C)C(=O)O (stereo unspecified)	inactive	
CCC(=O)Nc1nc(-c2cc([N+](=O)[O-])cs2)cs1	inactive	
CC(=O)Nc1ccc(NC(=O)C2Cc3c(-c4ccc(Cl)cc4)ccnc3O2)cc1 (stereo unspecified)	inconclusive: 0.562 µM [activator, full curve, poor fit]	
CCn1c(=O)cc(SCC(=O)N(C)Cc2ccccc2)c2ccccc21	inconclusive: 3.98 µM [activator, full curve, poor fit]	
Cc1cc([N+](=O)[O-])ccc1NCc1ccc2c(c1)OCCO2	inconclusive: 35.5 µM [activator, single point]	
CN(Cc1cnn(C)c1)C(=O)c1sc2cccc(Cl)c2c1Cl	inconclusive: 11.2 µM [activator, partial curve]	
COc1ccc(-c2csc(NC(=O)Cc3ccccc3)n2)cc1OC	inconclusive: 2 µM [activator, partial curve]	
Cc1ccc(-c2ccc(=O)n(C(C)C(=O)Nc3ccccc3Cl)n2)cc1C (stereo unspecified)	inactive	
Cc1ccc(NC(=O)c2sc3nc(C)nc(N4CCN(c5ccccn5)CC4)c3c2C)c(C)c1	inactive	
COc1ccc(S(=O)(=O)NCCSCc2cccc(C)c2)cc1Br	inconclusive: 31.6 µM [activator, single point]	
COc1cc(/C=N/NC(=O)CN2CCCCC2)ccc1OCc1ccc(Br)cc1	inconclusive: 6.31 µM [activator, single point]	
CCOC(=O)C1=C(CN2CCC(C(=O)OCC)CC2)NC(=O)NC1c1ccc(Cl)cc1 (stereo unspecified)	inactive	

Structure (SMILES)	Potency	growth rescue (activation)
Clc1cccc(Cc2c(-c3ccco3)nc3c4ccccc4ccn23)c1	inconclusive: 14.1 µM [activator, partial curve]	
O=C(c1cc(-c2ccc(F)cc2)on1)N1CCCc2ccccc21	inconclusive: 14.1 µM [activator, partial curve]	
O=C(/C=C/c1cccc([N+](=O)[O-])c1)NCCSCc1cccc(Cl)c1	active: 22.4 µM	
Cc1cc(C(=O)NCc2cccnc2)no1	inactive	
Cc1cccc(Oc2c([N+](=O)[O-])c(=O)n(C)c3ccccc23)c1	active: 11.2 µM	
CCc1nc2ccc(C(=O)N3CCN(c4ccccc4)CC3)cn2c1N(C)CCCc1ccccc1	inconclusive: 35.5 µM [activator, single point]	
COc1ccc(OCc2nnc(-c3ccccc3)o2)cc1	inactive	
Oc1oc(-c2ccccc2)nc1C=NCc1ccccc1	inconclusive: 22.4 µM [activator, single point]	
O=c1[nH]c(-c2ccccn2)nc2sc(-c3ccccc3)cc12	inconclusive: 3.55 µM [activator, single point]	
CC#CCOC(=O)c1c(C)nc2sc3c(c2c1N)CCC(O)C3 (stereo unspecified)	inconclusive: 8.91 µM [activator, partial curve, poor fit]	
COCCCN1CC(=O)N2C(c3cccc(OC)c3OC)c3[nH]c4ccccc4c3C[C@H]2C1=O (stereo partly specified)	inconclusive: 31.6 µM [activator, partial curve]	
O=C(/C=C/c1ccco1)NC(=S)Nc1cc(C(F)(F)F)ccc1N1CCOCC1	inactive	
Oc1cccc(C(=S)N2CCCCC2)c1	inconclusive: 0.316 µM [activator, full curve, poor fit]	
CC1Cc2c([nH]c3ccccc23)C(=O)N1 (stereo unspecified)	inconclusive: 25.1 µM [activator, partial curve]	
CC1CCN(C2=NC(=O)/C(=C/c3ccccc3F)S2)CC1	active: 12.6 µM	
N#CCCN1CCCc2cc(N=Nc3ccc(C(F)(F)F)cc3)ccc21	inconclusive: 31.6 µM [activator, single point]	
CC(C)(C)c1ccc(C(=O)NC(=S)N2CCCCCC2)cc1	inconclusive: 35.5 µM [activator, single point]	
CC(C)C[C@H]1CNC(=S)N1C[C@H]1CCCN1C[C@H](Cc1ccc(O)cc1)N1C[C@H](Cc2ccccc2)N(CC2CCCCCC2)C1=S	inconclusive: 8.91 µM [activator, full curve, poor fit]	
CCOC(=O)C1=C(COC(=O)/C=C/c2ccccc2Cl)NC(=O)NC1C (stereo unspecified)	inconclusive: 25.1 µM [activator, single point]	
Cc1cccc(-c2cnc(C(O)c3ccc(Cl)cc3C)[nH]2)c1 (stereo unspecified)	inconclusive: 0.562 µM [activator, full curve, poor fit]	
COc1cccc2c1c(NC(=O)c1cc(C)on1)nn2C	inconclusive: 6.31 µM [activator, partial curve]	
CC(C(=O)NC1CCCCCC1)c1ccc([N+](=O)[O-])cc1 (stereo unspecified)	inconclusive: 12.6 µM [activator, partial curve]	
COCCNC(=O)c1cc(Sc2ccc(F)cc2F)nc2ccccc12	inconclusive: 22.4 µM [activator, partial curve]	
